The list shows a part of the results. At the low end of the ranking the order means little.

In the assay the target is MAX:MAX (p21) (UniProt P61244-2). The assay can be described thus: protein-binding microarray (anti-MAX antibody). As to conditions: PBM: 15 mM Tris-HCl pH 7.5, 100 mM KCl, 0.075% NP40, 7.5 mM beta-mercaptoethanol, 375 ng/ul BSA, 8 ng/ul poly(dA-dT):(dA-dT), 550 ng complex, 60 min, room …; high values mean tight binding; double strand, one strand shown; sequences stand for … in CCGGC…TTAATAGCTAAGATTACTATATCGACG
In turn, TGAAACTAAGTA yielded a binding signal (log2 normalized fluorescence) of -0.806. Regarding TGAAACGGGATA, the binding signal (log2 normalized fluorescence) is -0.38. As for TGAGAGAGGGTA, the figure is -0.986; as for TGACATCACGTA, 0.859. On to CGACGAGTGGTA, for which the binding signal (log2 normalized fluorescence) stood at 0.424.

With TGAAAGAACGTA, the binding signal (log2 normalized fluorescence) was -0.363. TGAGTCACAGTA returned a binding signal (log2 normalized fluorescence) of -0.394. On to TGACTGAAGGTA, for which the binding signal (log2 normalized fluorescence) is -0.366. As for TGACAAGTCGTA, the binding signal (log2 normalized fluorescence) is -0.594.

As for TGACAGAACGTA, the binding signal (log2 normalized fluorescence) was -0.288. As for TGAGATAACGTA, the figure is -0.741. TGAATCCCTGTA registered a binding signal (log2 normalized fluorescence) of -0.621. TGACGTATGGTA: the binding signal (log2 normalized fluorescence) amounted to 0.599. With TGACACCATGTA, the binding signal (log2 normalized fluorescence) was determined as 1.19. The sequence TGACACGAGATA displayed a binding signal (log2 normalized fluorescence) of 2.72. In turn, TGAGTAGTAGTA returned a binding signal (log2 normalized fluorescence) of -1.19. As for TGACAAAGAGTA, the figure is -0.735; as for TGAAGCGGGGTA, 0.358; as for TGAACATTCGTA, -0.0864. As for TGAACAAAAGTA, the figure is -0.814; as for TGAAATAATGTA, -0.485; as for TGAGCCGTCGTA, -1.09.

In turn, GGACAACTGGTA showed a binding signal (log2 normalized fluorescence) of -0.317. Sequence CCACACGTGGTA showed a binding signal (log2 normalized fluorescence) of 2.95. TGATGGTACGTA showed a binding signal (log2 normalized fluorescence) of 0.184. Consider TGACCACGTGTA, for which the binding signal (log2 normalized fluorescence) was found to be 3.2.

Consider TGAGCGTCTGTA, for which the binding signal (log2 normalized fluorescence) was -0.723. In the case of TGAACGACTGTA, the binding signal (log2 normalized fluorescence) was -0.347.

In turn, TGAGTATACGTA returned a binding signal (log2 normalized fluorescence) of -0.889. Sequence TGAGTATAGGTA returned a binding signal (log2 normalized fluorescence) of -1.07.

On to TGACTAGTCGTA, for which the binding signal (log2 normalized fluorescence) was -0.905.

With TGAGAGTTGGTA, the binding signal (log2 normalized fluorescence) is -1.2. As for TGACAACAGGTA, the figure is -0.156; as for TGATTGTCAGTA, -0.299. With TGAGTAGGGGTA, the binding signal (log2 normalized fluorescence) is -0.0749.

With TGAAGCGAGGTA, the binding signal (log2 normalized fluorescence) was 1.05. In the case of TGACTAGGTGTA, the binding signal (log2 normalized fluorescence) is -0.804.

In the case of TGACACGTCGCA, the binding signal (log2 normalized fluorescence) amounted to 2.06.

Consider TGAGCATGTGTA, for which the binding signal (log2 normalized fluorescence) was determined as 3.12. Regarding TGAGGCGAGTTT, the binding signal (log2 normalized fluorescence) was -0.321. TGAATGATTGTA gave a binding signal (log2 normalized fluorescence) of 0.0572.

Sequence TGACGAACAGTA displayed a binding signal (log2 normalized fluorescence) of -0.468. As for TGAGTTGCGGTA, the figure is -0.73; as for TGACGTACCGTA, -0.228. Sequence TGACTGGTTGTA came in with a binding signal (log2 normalized fluorescence) of -0.258. TGATTTAGGGTA had a binding signal (log2 normalized fluorescence) of -1.09. In the case of TGAGATGTAGTA, the binding signal (log2 normalized fluorescence) was -0.645. Consider TGAACTTTAGTA, for which the binding signal (log2 normalized fluorescence) is -0.73.

TGATCTTGCGTA gave a binding signal (log2 normalized fluorescence) of -0.543.

With TGACACGATTTA, the binding signal (log2 normalized fluorescence) turned out to be 1.27. As for TGACTCTAAGTA, the binding signal (log2 normalized fluorescence) is -1.04. For TGATTCTCTGTA, the binding signal (log2 normalized fluorescence) was -1.13. For TGAAACTGTGTA, the binding signal (log2 normalized fluorescence) is -0.413. As to TGACCTACCGTA, the binding signal (log2 normalized fluorescence) is -0.467.

In turn, TGACGTCATGTA returned a binding signal (log2 normalized fluorescence) of 0.523. In turn, TGACAGATTGTA came in with a binding signal (log2 normalized fluorescence) of -0.295.

The sequence TGAGCTACCGTA yielded a binding signal (log2 normalized fluorescence) of -0.852. As to TGACCCTTTGTA, the binding signal (log2 normalized fluorescence) is -0.524. Sequence TGACGCAGGGTA returned a binding signal (log2 normalized fluorescence) of -0.104. Sequence TGATAGACGGTA registered a binding signal (log2 normalized fluorescence) of -0.796. Sequence TGACAAAAGGTA showed a binding signal (log2 normalized fluorescence) of -0.313.

In turn, TCTCACGTGGTA came in with a binding signal (log2 normalized fluorescence) of 3.5.

TGAACTCGAGTA yielded a binding signal (log2 normalized fluorescence) of 0.282. TGACACGGGATC gave a binding signal (log2 normalized fluorescence) of 2.12. As for TGACACGTGACT, the figure is 3.21.

In turn, TGAGGTTGAGTA returned a binding signal (log2 normalized fluorescence) of -0.703. For TGACTGTCTGTA, the binding signal (log2 normalized fluorescence) is -0.155. As for TGAGTGATTGTA, the figure is -0.206; as for TGACTGCAAGTA, -0.0915.

TGAGTGAGAGTA returned a binding signal (log2 normalized fluorescence) of -0.462. Sequence TGACGTATTGTA came in with a binding signal (log2 normalized fluorescence) of -0.527. Sequence TGATGCACCGTA showed a binding signal (log2 normalized fluorescence) of 0.313. For the sequence TGATGAGAGGTA, the binding signal (log2 normalized fluorescence) is -0.559. In turn, TGAGATGGTGTA registered a binding signal (log2 normalized fluorescence) of -0.402.

For the sequence TGAATGGGCGTA, the binding signal (log2 normalized fluorescence) stood at 0.274. Consider TGACACGTGGCA, for which the binding signal (log2 normalized fluorescence) is 3.28. As for TGAAGATCAGTA, the figure is -0.638. As for TGAGCTGAGGTA, the binding signal (log2 normalized fluorescence) is -0.753.

As to TGACTTTTAGTA, the binding signal (log2 normalized fluorescence) is -1.01. As for CGCCACGTAGTA, the figure is 1.58; as for TGAGGTTAAGTA, -0.992; as for TGACTCCCGGTA, -0.467. As for TGACGCTTCGTA, the figure is -0.566; as for CGACATGTGGTA, 3.18; as for TGAGTATGGGTA, -0.499. With TGAGTCGCGGTA, the binding signal (log2 normalized fluorescence) was -0.622. For TGACAACTGGTT, the binding signal (log2 normalized fluorescence) is -0.38. For the sequence TGATTGGTAGTA, the binding signal (log2 normalized fluorescence) was -0.908.

TGATAGGATGTA registered a binding signal (log2 normalized fluorescence) of -0.515. As for TGATAAATGGTA, the figure is -0.151. For the sequence TGATAAATAGTA, the binding signal (log2 normalized fluorescence) is -1.16. As for TGATAGTTAGTA, the figure is -1.29; as for TGACAGCCAGTA, 0.0891; as for TGATAACACGTA, 0.523.

In the case of TGACGCCGCGTA, the binding signal (log2 normalized fluorescence) is -0.354. As for TGAAACCATGTA, the binding signal (log2 normalized fluorescence) was determined as 0.529. TGATCAGGTGTA gave a binding signal (log2 normalized fluorescence) of 2.23. As for TGACCAATGGTA, the figure is 0.121. In turn, TGAAGTTGTGTA gave a binding signal (log2 normalized fluorescence) of -0.357. The sequence TGAAACTACGTA had a binding signal (log2 normalized fluorescence) of -0.591.

TGACTCTGCGTA: the binding signal (log2 normalized fluorescence) is -0.794. With TACGTGCCGCGA, the binding signal (log2 normalized fluorescence) was determined as 2.47. As for TGAAACTCAGTA, the binding signal (log2 normalized fluorescence) was -0.843. As for TGAGCCGGGGTA, the figure is -0.812. As for TGAACATCAGTA, the figure is -0.211.

TGATAATATGTA showed a binding signal (log2 normalized fluorescence) of -0.59. For the sequence TGAGCTTTTGTA, the binding signal (log2 normalized fluorescence) is -1.3. For TGATCCTCTGTA, the binding signal (log2 normalized fluorescence) is -0.751. TGACCGCTAGTA gave a binding signal (log2 normalized fluorescence) of -0.618. TGATTCTAGGTA displayed a binding signal (log2 normalized fluorescence) of -1.41. Take CGACACGCTGTA: the binding signal (log2 normalized fluorescence) came out at 3.08. The sequence TGATCTCGCGTA gave a binding signal (log2 normalized fluorescence) of 0.19.

TGAGAAGATGTA gave a binding signal (log2 normalized fluorescence) of -0.551. For the sequence TGACGCTAAGTA, the binding signal (log2 normalized fluorescence) was -0.829. Turning to TGATGTAAGGTA, the binding signal (log2 normalized fluorescence) was -0.254. TGAGAAGTCGTA had a binding signal (log2 normalized fluorescence) of -1.05. For TGATTTACAGTA, the binding signal (log2 normalized fluorescence) is -0.781. Take TGACATCTGGCA: the binding signal (log2 normalized fluorescence) is 0.914.

On to TGACGTGTTGTA, for which the binding signal (log2 normalized fluorescence) was 1.35. TGATAAGCAGTA registered a binding signal (log2 normalized fluorescence) of -0.832. TGAAGAGGAGTA: the binding signal (log2 normalized fluorescence) was -0.693. As for TGAATTCTTGTA, the figure is -0.798; as for TGATCCGTGGTA, 0.161. Sequence TGACCTTAAGTA returned a binding signal (log2 normalized fluorescence) of -0.378. In turn, TGAGATATCGTA showed a binding signal (log2 normalized fluorescence) of -1.17. TGACACTCGGGA: the binding signal (log2 normalized fluorescence) was found to be 0.023. Turning to TGAAGGTTGGTA, the binding signal (log2 normalized fluorescence) was -0.58. Take TGAGACCCTGTA: the binding signal (log2 normalized fluorescence) was -0.583.

Sequence TGAATGCCCGTA came in with a binding signal (log2 normalized fluorescence) of 0.244. In turn, TGACCTTTGGTA registered a binding signal (log2 normalized fluorescence) of -0.703. TGATTTTGTGTA yielded a binding signal (log2 normalized fluorescence) of -1.11. The sequence TGACCGTCCGTA gave a binding signal (log2 normalized fluorescence) of -0.314. As for TGAATTATTGTA, the figure is -1.24; as for TGACACGTTTAA, 2.59. The sequence TGAACGTTCGTA displayed a binding signal (log2 normalized fluorescence) of 0.09.

For TGAACCGACGTA, the binding signal (log2 normalized fluorescence) is -0.59. As for TGACCCGGTGTA, the figure is 0.329.

Values taken from PMC5515408.
